Type in all cases: cell-based
Test [1] deals with HCC1954 basal breast cancer cell line. As to conditions: Homo sapiens, read-out: Cell Line GI50 Range HCC-1954.
The subject of test [2] is MDA-MB-468 basal breast cancer cell line. As to conditions: Homo sapiens, read-out: Cell Line GI50 Range MDA-MB-468.
Test [3] deals with MCF-7 luminal breast cancer cell line. As to conditions: Homo sapiens, MCF7, 120 h, read-out: Cell Line GI50 Range MCF-7.
The subject of a further test is SW620 colon cancer cells. As to conditions: Homo sapiens, 120 h; SW-620 colon cancer cell line; SRB assay after 5 days culture; read-out: Cell Line GI50 Range SW-620. For orientation: In SRB staining, fixed cells bind dye roughly in proportion to their protein.
The next test has as its system A549 lung cancer cells. As to conditions: Homo sapiens, 120 h; A549 lung cancer cell line; SRB assay after 5 days culture; read-out: Cell Line GI50 Range A-549.
Where [4] appears, read: 120 h, MDA-MB-468 basal breast cancer cell line, SRB assay after 5 days culture.
[5] abbreviates: MCF-7 luminal breast cancer cell line, SRB assay after 5 days culture.
Setting [6] is: 120 h, HCC1954 basal breast cancer cell line, SRB assay after 5 days culture.

One may read the GI50 as the concentration giving 50% growth inhibition.

Structures can show the parent of a compound that is named as a salt. Where two headings read alike, the source gives them in different places.

For the compound `O=C1Nc2ccccc2[C@]12CC2c1ccc2cn[nH]c2c1` (mixture of isomers) [Example A2, (1R*,2S*)-2-(1H-indazol-6-yl)spiro[cyclopropane-1,3′-indolin]-2′-one], the GI50 in test [1] (HCC1954, 120 h) was greater than 10000 nM; in test [2] (MDA-MB-468, 120 h), greater than 10000 nM; in test [3], greater than 10000 nM.
As to `COc1ccc2c(c1)[C@]1(CC1c1ccc3c(-c4ccc(N5CCN(C)CC5)nc4)n[nH]c3c1)C(=O)N2` (mixture of isomers) [Example A14, (1R*,2S*)-5′-Methoxy-2-(3-(6-(4-methylpiperazin-1-yl)pyridin-3-yl)-1H-indazol-6-yl)spiro[cyclopropane-1,3′-indolin]-2′-one dihydrochloride], the GI50 is 1000 to 10000 nM in test [1] (HCC1954, 120 h); less than 100 nM in test [2] (MDA-MB-468, 120 h); less than 100 nM in test [3].
As to `CN(C)Cc1ccc(/C=C/c2n[nH]c3cc(C4C[C@@]45C(=O)Nc4ccccc45)ccc23)cc1` (mixture of isomers) [Example A26, (1R*,2R*)-(E)-2-(3-(4-((dimethylamino)methyl)styryl)-1H-indazol-6-yl)spiro[cyclopropane-1,3′-indolin]-2′-one 2,2,2-trifluoroacetate], in test [1] (HCC1954, 120 h), the GI50 was 1000 to 10000 nM.
As for `O=C1Nc2ncc(Br)cc2[C@]12CC2c1ccc2c(/C=C/c3cccnc3)n[nH]c2c1` (mixture of isomers) [Example A27, (1R*,2S*)-5′-bromo-2-(3-((E)-2-(pyridin-3-yl)vinyl)-1H-indazol-6-yl)spiro[cyclopropane-1,3′-pyrrolo[2,3-b]pyridin]-2′(1′H)-one], the GI50 lay within 1 to 10 µM in the test on SW620 colon cancer cells; 1000 to 10000 nM in test [1] (HCC1954, 120 h, HCC1954 basal breast cancer cell line, SRB assay after 5 days culture); 1 to 10 µM in the test on A549 lung cancer cells; 100 to 1000 nM in test [2] (setting [4]); 1000 to 10000 nM in test [3] (setting [5]).
For `CN1CCN(c2ccc(-c3n[nH]c4cc(C5C[C@@]56C(=O)Nc5ccc(N)cc56)ccc34)cc2)CC1` (mixture of isomers) [Example A86, (1R*,2S*)-5′-amino-2-(3-(4-(4-methylpiperazin-1-yl)phenyl)-1H-indazol-6-yl)spiro[cyclopropane-1,3′-indolin]-2′-one], the GI50 in the test on SW620 colon cancer cells is 1 to 10 µM; in test [1] (setting [6]) it was greater than 10000 nM; with A549 lung cancer cells it was 1 to 10 µM; in test [2] (setting [4]), 1000 to 10000 nM; in test [3] (setting [5]), greater than 10000 nM.
In the case of `COc1ccc2c(c1)[C@]1(C[C@H]1c1ccc3c(-c4ccc(N5CCN(C)CC5)cc4)n[nH]c3c1)C(=O)N2` (relative stereo) [Example A38, (1R*,2S*)-5′-Methoxy-2-(3-(4-(4-methylpiperazin-1-yl)phenyl)-1H-indazol-6-yl)spiro[cyclopropane-1,3′-indolin]-2′-one], the GI50 was greater than 10000 nM in test [1] (HCC1954, 120 h) and 100 to 1000 nM in test [3].
Turning to `O=C1Nc2ccccc2[C@]12C[C@H]2c1ccc2c(/C=C/c3ccc(CN4CCCCC4)nc3)n[nH]c2c1` (relative stereo) [Example A63, (1R*,2S*)-(E)-2-(3-((E)-2-(6-(piperidin-1-ylmethyl)pyridin-3-yl)vinyl)-1H-indazol-6-yl)spiro[cyclopropane-1,3′-indolin]-2′-one 2,2,2-trifluoroacetate salt], in test [1] (HCC1954, 120 h), the GI50 was in the range of 1000 to 10000 nM.
In the case of `CN1C(=O)[C@@]2(C[C@H]2c2ccc3c(/C=C/c4ccc(CN5CCCCC5)cc4)n[nH]c3c2)c2ccccc21` (relative stereo) [Example A95, (1R*,2S*)-(E)-1′-methyl-2-(3-(4-(piperidin-1-ylmethyl)styryl)-1H-indazol-6-yl)spiro[cyclopropane-1,3′-indolin]-2′-one 2,2,2-trifluoroacetate], the GI50 in test [1] (setting [6]) and in test [3] (setting [5]) was 1000 to 10000 nM in each case.
`CCN1CCN(c2ccc(-c3n[nH]c4cc([C@@H]5C[C@@]56C(=O)Nc5ccc(OC)cc56)ccc34)cc2)CC1` (relative stereo) [Example A98, (1R*,2S*)-2-(3-(4-(4-ethylpiperazin-1-yl)phenyl)-1H-indazol-6-yl)-5′-methoxyspiro[cyclopropane-1,3′-indolin]-2′-one 2,2,2-trifluoroacetate]: the GI50 was greater than 10000 nM in test [1] (HCC1954, 120 h) and 100 to 1000 nM in test [3].
Consider `COc1ccc2c(c1)[C@]1(C[C@H]1c1ccc3c(-c4ccc(N5CCC(O)CC5)nc4)n[nH]c3c1)C(=O)N2` (relative stereo) [Example A117, (1R*,2S*)-2-(3-(6-(4-hydroxypiperidin-1-yl)pyridin-3-yl)-1H-indazol-6-yl)-5′-methoxyspiro[cyclopropane-1,3′-indolin]-2′-one 2,2,2-trifluoroacetate], for which the concentration for 50% growth inhibition (GI50) in test [1] (HCC1954, 120 h) is greater than 10000 nM; in test [2] (MDA-MB-468, 120 h) it was 100 to 1000 nM; in test [3], 1000 to 10000 nM.
On to `COc1ccc2c(c1)[C@]1(C[C@H]1c1ccc3c(-c4ccc(C5CCNCC5)cc4)n[nH]c3c1)C(=O)N2` (relative stereo) [Example A122, (1R*,2S*)-5′-methoxy-2-(3-(4-(piperidin-4-yl)phenyl)-1H-indazol-6-yl)spiro[cyclopropane-1,3′-indolin]-2′-one 2,2,2-trifluoroacetate], for which the GI50 is 100 to 1000 nM in test [1] (HCC1954, 120 h); less than 100 nM in test [2] (MDA-MB-468, 120 h); less than 100 nM in test [3].
As to `Cc1ccc2c(c1)[C@]1(C[C@H]1c1ccc3c(/C=C/c4ccc(CN(C)C)cc4)n[nH]c3c1)C(=O)N2` (relative stereo) [Example A169, (1R*,2S*)-(E)-2-(3-(4-((dimethylamino)methyl)styryl)-1H-indazol-6-yl)-5′-methylspiro[cyclopropane-1,3′-indolin]-2′-one 2,2,2-trifluoroacetate], the GI50 was 1000 to 10000 nM in test [1] (HCC1954, 120 h); less than 100 nM in test [2] (MDA-MB-468, 120 h); less than 100 nM in test [3].
In the case of `COc1ccc2c(c1)[C@]1(C[C@H]1c1ccc3c(/C=C/c4ccc(N5CCN(C)CC5)cc4)n[nH]c3c1)C(=O)N2` (relative stereo) [Example A174, (1R*,2S*)-(E)-5′-methoxy-2-(3-(4-(4-methylpiperazin-1-yl)styryl)-1H-indazol-6-yl)spiro[cyclopropane-1,3′-indolin]-2′-one 2,2,2-trifluoroacetate], the concentration for 50% growth inhibition (GI50) in test [3] (setting [5]) is less than 100 nM.
For the compound `CN1C(=O)[C@@]2(C[C@H]2c2ccc3c(/C=C/c4ccc(N5CCNCC5)cc4)n[nH]c3c2)c2ccccc21` [Example A90, (1R,2S)-(E)-1′-methyl-2-(3-(4-(piperazin-1-yl)styryl)-1H-indazol-6-yl)spiro[cyclopropane-1,3′-indolin]-2′-one hydrochloride], the GI50 in test [1] (HCC1954, 120 h) is 100 to 1000 nM; in test [2] (MDA-MB-468, 120 h), less than 100 nM; in test [3], less than 100 nM.
Regarding `COc1ccc2c(c1)[C@]1(C[C@H]1c1ccc3c(/C=C/c4ccc(CN5CCOCC5)s4)n[nH]c3c1)C(=O)N2` [Example A105, (1R,2S)-5′-methoxy-2-(3-((E)-2-(5-(morpholinomethyl)thiophen-2-yl)vinyl)-1H-indazol-6-yl)spiro[cyclopropane-1,3′-indolin]-2′-one hydrochloride], the GI50 in test [1] (HCC1954, 120 h) is less than 100 nM; in test [2] (MDA-MB-468, 120 h), less than 100 nM; in test [3], less than 100 nM.
`O=C1Nc2ccccc2[C@]12C[C@H]2c1ccc2c(/C=C/c3ccc(CCN4CCOCC4)cc3)n[nH]c2c1` [Example A205, (1R,2S)-(E)-2-(3-(4-(2-morpholinoethyl)styryl)-1H-indazol-6-yl)spiro[cyclopropane-1,3′-indolin]-2′-one 2,2,2-trifluoroacetate]: the GI50 in test [1] (HCC1954, 120 h) was 100 to 1000 nM; in test [2] (MDA-MB-468, 120 h), less than 100 nM; in test [3], 100 to 1000 nM.
